The labels stand for the following.
B1: LINE1-mini (parent)
chain: GGCAGAGCUCAACACAGCGUGGCAAAGUGGCUGUGGCUAGACUGCC

Read counts are not given, so values of variants with three or more changes are uncertain.

The variants in this data set derive from B1. Briefly: self-cleavage, relative activity (ratio to wild type); higher = more cleavage; in vitro, sequencing; the parent is a self-cleaving ribozyme.
For C3A A11U U20C G29A C46U, the self-cleavage was found to be 0.02.

For the variant G2U G17A U43A, the self-cleavage came out at 0.07.

Consider G2U G29U A39U, for which the self-cleavage worked out at 0.06. Take G2U C10G A11G G35A: the self-cleavage was determined as 0.03. With G2U G5A U38C G44U, the self-cleavage turned out to be 0.06. Regarding C3A A6C G30A C37G, the self-cleavage worked out at 0.65. To C3A C8G G19U U20A G35U belongs 0.05. C3A C23G A26C: the self-cleavage worked out at 1.08.

For G2U C10U A26C C31U U32A, the self-cleavage came out at 0.02.

G2U G5A G30U: the self-cleavage was 0.1. To G2U G5U G21C C23A G35A C46A belongs 0.01; to G2U C10G A26G C37A A39G G44U, 0.01. The figure for G2U C8A A16U C31A C42A is 0.03.

Take C3A A12U C31U: the self-cleavage was 0.06. In the case of C3A C18U A41C U43C, the self-cleavage worked out at 0.09. Turning to G2U G35C C42U, the self-cleavage is 0.01.

Regarding C3A A4C A6C G7C G22A C42A, the self-cleavage was 0.05. To C3A C18G G44U belongs 1.54; to C3A C18A G40C G44U, 0.04. Consider C3A A25C A26U G30C, for which the self-cleavage worked out at 0.21. The figure for G2U C23G A24C is 0.08; for C3A A14U A39U it is 0.08. To G2U C18U U32C U34C belongs 0.02; to C3A C13G A14U C23A A24U, 0.13; to C3A C10G C31A U38G A39U, 0.02. The figure for G2U C8A A11C A24U G29C is 0. With C3A C23G G40C U43A, the self-cleavage was found to be 0.15.

For C3A C23U G30C G36U G44A, the self-cleavage stood at 0.11.

C3A A25U C31U A41G: the self-cleavage was found to be 0.05. Take C3A C23G G30U G33C: the self-cleavage worked out at 0.07. The figure for G2U C8G C10A A25C C46A is 0; for C3A C18G G40U G44C it is 0.04; for C3A A11C C13U it is 0.03. In the case of C3A A11U G27U G29A C31A, the self-cleavage worked out at 0.02. On to G2U G19A G36A A41C U43C, for which the self-cleavage was found to be 0.01. In the case of C3A A11G A16C U32G U38A, the self-cleavage was determined as 0. The figure for C3A A6U U9A C42U is 0.71.

For the variant G2U G5U A25C U28C, the self-cleavage is 0. The figure for C3A A4G G27C C42U is 0.09; for G2U G21U C42A it is 0.01. The figure for C3A A12G U20G U43A C46U is 0.02.

G2U C8U A26U: the self-cleavage stood at 0.03. To G2U C18U G21U U34G belongs 0.02; to C3A C8U G22C C42G G44A C46A, 0.18; to C3A A4C A39C, 0.04. Consider C3A A4C A39U, for which the self-cleavage was 0.19. To C3A A11G C13A G17A U32C G44C belongs 0.03; to G2U C15A A16G C18U, 0.05; to C3A A16U G29A, 0.22. To C3A C10A C42G C46G belongs 0.01; to G2U G22C G29C G30C A39C C46G, 0.03.

For G2U G5U C18A G22A U38C, the self-cleavage was 0.01. The figure for G2U C13G A25U G30A is 0.04. To C3A C18U C23A belongs 0.17; to C3A A4C C8U A16C C18U C31G, 0.46. C3A C10U C13U C37U: the self-cleavage is 0.09. Regarding G2U C8G C18U G21A C42G, the self-cleavage stood at 0.

As for G2U C8U A12G G22A C23A A39U, the self-cleavage was 0.07. For G2U G5U A12G G17U U28A C31U G36C, the self-cleavage is 0.01. To G2U G35U G44C belongs 0.05; to C3A A26C U28G, 0.16; to C3A A24C A26U G27A, 0.25.

For the variant C3A C13A A14G G19U C46A, the self-cleavage is 0.24.

As for G2U U9C A11C, the self-cleavage is 0.01. To G2U C13G G17U G27A G29U G40A belongs 0.06.

Consider C3A A12G C23U G30C C31G G33U G40U, for which the self-cleavage turned out to be 0.01. The figure for C3A A6C C37A is 0.09; for G2U G5A C10A it is 0.02; for C3A A12G A24U A39G it is 0.2. The figure for C3A C8A A16G U28C C42U U43G is 0.17; for C3A A16G G30A U32C it is 0.16; for C3A A4C C8A A24U A26U G30U C46G it is 0.69. To C3A C8U A16C G22A C31U belongs 0.1; to C3A A12G C23U G40U, 0.02. Turning to G2U C8A G44U, the self-cleavage came out at 0.05. The figure for G2U C10G G21C A39C is 0; for G2U C3U G22U it is 0.15; for C3A A41G C42A it is 0.21. The figure for C3A A4U G5A U9G G21U is 0.22. For the variant C3A C15A A24G G35U, the self-cleavage came to 0.29. The figure for C3A A12G A16U G40U is 0.06; for G2U G36A G40A it is 0.04.

With C3A C15A C37U, the self-cleavage worked out at 0.59. Regarding C3A C15G G19U G27C C31A, the self-cleavage stood at 0.01. With G2U C13A C15U A26C C31G, the self-cleavage came out at 0. Regarding C3A C18A C37U, the self-cleavage is 0.07.

C3A A6G G30U: the self-cleavage worked out at 0.1. Consider C3A C10A U28A A39U, for which the self-cleavage worked out at 0.02. As for G2U C18U C23G G35C, the self-cleavage turned out to be 0.04.

Take C3A A11U A24C G27C: the self-cleavage was 0.04. The figure for C3A C23A G30C is 0.31; for C3A A4U A41U C45G it is 0.45; for G2U C15A U32G it is 0.03.

Consider C3A C8A U28A, for which the self-cleavage is 0.31. Take C3A A6G G40A: the self-cleavage worked out at 0.18. The figure for G2U G5U A16G C18G G29A C42G is 0.03; for C3A A16G G30C G35A A39C it is 0.08; for C3A C10A G29C it is 0.02. To G2U C8G G27A G29A G30C belongs 0.01; to C3A A24U G27A U28A, 0.39; to C3A A39U G40A, 0.07. With G2U C45U C46A, the self-cleavage came out at 0.06.

As to G2U C15A C37A, the self-cleavage was found to be 0.08. C3A C18G C46A: the self-cleavage is 0.2.

In the case of C3A A24C A39U, the self-cleavage came out at 0.13. To C3A A12C C18A belongs 0.07; to G2U C15A U20A G40U, 0.01.

Regarding G2U G33C C42A, the self-cleavage is 0.02.

With G2U C18A U20A, the self-cleavage turned out to be 0.05.

In the case of G2U G21C A39G, the self-cleavage came to 0.04. With G2U U28C G30U C31A U34G A39C, the self-cleavage amounted to 0. The figure for G2U G35U A41G is 0.02.

Regarding G2U U20C G27A, the self-cleavage was 0.01. To G2U C13G C18A G21A U28A belongs 0.01; to C3A C10A C18G G35U U38G, 0.1; to C3A C10U G21U G44C, 0.06.

As to C3A C13A G19C A25C G30U, the self-cleavage was 0.07.

C3A A4C A12C A14G U38A: the self-cleavage was determined as 0.03. In the case of G2U G21U A25G U34G, the self-cleavage amounted to 0.03.

C3A A4G A26G C45A: the self-cleavage was found to be 0.35. The figure for G2U U9C C15A G21U G40U is 0.04. The figure for G2U G5U C15U G22A U32C G36A is 0.01; for G2U C8U A41C it is 0.02. Take C3A A11U G36U: the self-cleavage was 0.04. In the case of G2U G21U G35A G40U, the self-cleavage was found to be 0.03.

In the case of C3A C10A U34A U38C U43C, the self-cleavage was determined as 0.04. Turning to C3A C13U A14C G17U, the self-cleavage came to 0.08.

G2U G5C C10U: the self-cleavage worked out at 0.01. With C3A A4C G19A C23U G27C G30C G33U, the self-cleavage was 0.03. The figure for G2U G19C A26U is 0.17.

For G2U C31G C42U, the self-cleavage came out at 0.04. To C3A A6U G21C G27U A39U belongs 0.28; to C3A C15U G33A G36A, 0.92; to C3A A11G G22U U32G, 0.04. The figure for G2U C8G G27C C46U is 0.05. The figure for G2U U9C C42U is 0.06.

For the variant C3A C15A G17A, the self-cleavage was 0.24.

C3A A4C A11G G17A C23A U38C: the self-cleavage turned out to be 0.03. Turning to C3A C10A G19U G35C C37U G40U, the self-cleavage worked out at 0.02.

As for G2U C10G A26C C31A, the self-cleavage is 0.01. Take G2U G29U U34A U38A: the self-cleavage is 0.03. The figure for G2U G30U C42A is 0.05; for C3A C31A U34C it is 0.05; for G2U C18U G30A A41G C42U it is 0.08. To C3A A4C G27A G30A belongs 0.13; to G2U C23U U32A U43A, 0.21.

Regarding G2U C8U A16C A39U, the self-cleavage is 0.04. To G2U C8A U34A belongs 0.11; to G2U G7C C8U G17U C37A, 0.26. For the variant G2U C13U G17C G29C A39G, the self-cleavage stood at 0.02. To G2U U20A G22A belongs 0.06; to C3A C10U C13G A26C C37G, 0.19; to C3A A24G G29C, 0.05. To C3A C15U C23U A24C G27C belongs 0.05. To G2U G5A A16C belongs 0.01; to G2U C23A G33C G40A, 0.01; to G2U G17C G21C G36U U38G, 0.01. For C3A C31A G35U G44C, the self-cleavage was determined as 0.19. On to C3A A6G C18A U20A C45U, for which the self-cleavage turned out to be 0.04.

In the case of C3A C10U G17U G22U U32G, the self-cleavage worked out at 0.07. The figure for C3A C8A C31U G35C is 0.54. On to C3A A14C C23U, for which the self-cleavage stood at 0.02. As to C3A C8U A14C G21A A25C U32A C37G, the self-cleavage is 0.04. Take G2U C23A G36U: the self-cleavage came out at 0.01.

As to G2U C15A A16C G27U G29U C31A, the self-cleavage worked out at 0.02. To G2U G5C C8U G17C C23A C31G belongs 0; to C3A C10A G17C A39U, 0.05.

These data come from the RNAGym collection of RNA variant scans (doi:10.7554/elife.90254).
